According to the supplement of paper PMC8728848:
This is one part of the list.

How the values were obtained:
Assay in all cases: glycan array binding signal (z-score within array); higher = stronger binding
Settings in all cases: glycan notation: IUPAC condensed, linker removed
[1] = molecular target: Fuc(a1-2)[GalNAc(a1-3)]Gal(b1-3)GlcNAc(b1-3)GalNAc
Method in brief: (§1)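 From the Consortium for Functional Glycomics database, 3228 arrays were curated, keeping only those whose protein sequence was available. Binding is given as a within-array Z-score averaged across arrays sharing a protein sequence and across linkers. Negative Z-scores can be read as non-binding.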

[2] = molecular target: Fuc(a1-2)[GalNAc(a1-3)]Gal(b1-3)GlcNAc(b1-6)GalNAc
Method in brief: as §1

[3] = molecular target: Fuc(a1-2)[GalNAc(a1-3)]Gal(b1-4)Glc
Method in brief: as §1

[4] = molecular target: Fuc(a1-2)[GalNAc(a1-3)]Gal(b1-4)GlcNAc
Method in brief: as §1

[5] = molecular target: Fuc(a1-2)[GalNAc(a1-3)]Gal(b1-4)GlcNAc(b1-2)Man
Method in brief: as §1

[6] = molecular target: Fuc(a1-2)[GalNAc(a1-3)]Gal(b1-4)GlcNAc(b1-2)Man(a1-3)[Fuc(a1-2)[GalNAc(a1-3)]Gal(b1-4)GlcNAc(b1-2)Man(a1-6)]Man(b1-4)GlcNAc(b1-4)GlcNAc
Method in brief: as §1

[7] = molecular target: Fuc(a1-2)[GalNAc(a1-3)]Gal(b1-4)GlcNAc(b1-2)Man(a1-3)[Fuc(a1-2)[GalNAc(a1-3)]Gal(b1-4)GlcNAc(b1-2)Man(a1-6)]Man(b1-4)GlcNAc(b1-4)[Fuc(a1-6)]GlcNAc
Method in brief: as §1

[8] = molecular target: Fuc(a1-2)[GalNAc(a1-3)]Gal(b1-4)GlcNAc(b1-3)Gal(b1-4)GlcNAc
Method in brief: as §1

[9] = molecular target: Fuc(a1-2)[GalNAc(a1-3)]Gal(b1-4)GlcNAc(b1-3)Gal(b1-4)GlcNAc(b1-3)Gal(b1-4)GlcNAc
Method in brief: as §1

[10] = molecular target: Fuc(a1-2)[GalNAc(a1-3)]Gal(b1-4)GlcNAc(b1-3)GalNAc
Method in brief: as §1

[11] = molecular target: Fuc(a1-2)[GalNAc(a1-3)]Gal(b1-4)GlcNAc(b1-3)[Fuc(a1-2)[GalNAc(a1-3)]Gal(b1-4)GlcNAc(b1-6)]GalNAc
Method in brief: as §1

[12] = molecular target: Fuc(a1-2)[GalNAc(a1-3)]Gal(b1-4)GlcNAc(b1-6)GalNAc
Method in brief: as §1

[13] = molecular target: Fuc(a1-2)[GalNAc(a1-3)]Gal(b1-4)[Fuc(a1-3)]GlcNAc
Method in brief: as §1

[14] = molecular target: Fuc(a1-2)[GalNAc(a1-3)]Gal(b1-4)[Fuc(a1-3)]GlcNAc(b1-3)GalNAc
Method in brief: as §1

[15] = molecular target: Fuc(a1-2)[GalNAc(a1-4)]Gal(b1-4)GlcNAc
Method in brief: as §1

[16] = molecular target: Fuc(a1-2)[GalNAc(b1-3)]Gal
Method in brief: as §1

Fuc(a1-3)GlcNAc = molecular target: Fuc(a1-3)GlcNAc
Method in brief: as §1

[17] = molecular target: Fuc(a1-3)[Gal(b1-4)]Glc6S
Method in brief: as §1

[18] = molecular target: Fuc(a1-3)[Gal(b1-4)]GlcNAc
Method in brief: as §1

[19] = molecular target: Fuc(a1-3)[Gal(b1-4)]GlcNAc(b1-2)Man
Method in brief: as §1

[20] = molecular target: Fuc(a1-3)[Gal(b1-4)]GlcNAc(b1-2)Man(a1-3)[Fuc(a1-3)[Gal(b1-4)]GlcNAc(b1-2)Man(a1-6)]Man(b1-4)GlcNAc(b1-4)GlcNAc
Method in brief: as §1

[21] = molecular target: Fuc(a1-3)[Gal(b1-4)]GlcNAc(b1-2)Man(a1-3)[Fuc(a1-3)[Gal(b1-4)]GlcNAc(b1-2)Man(a1-6)]Man(b1-4)GlcNAc(b1-4)[Fuc(a1-6)]GlcNAc
Method in brief: as §1

[22] = molecular target: Fuc(a1-3)[Gal(b1-4)]GlcNAc(b1-3)Gal(b1-3)[Fuc(a1-4)]GlcNAc
Method in brief: as §1

[23] = molecular target: Fuc(a1-3)[Gal(b1-4)]GlcNAc(b1-3)Gal(b1-4)[Fuc(a1-3)]GlcNAc
Method in brief: as §1

[24] = molecular target: Fuc(a1-3)[Gal(b1-4)]GlcNAc(b1-3)Gal(b1-4)[Fuc(a1-3)]GlcNAc(b1-3)Gal(b1-4)[Fuc(a1-3)]GlcNAc
Method in brief: as §1

[25] = molecular target: Fuc(a1-3)[Gal(b1-4)]GlcNAc(b1-3)GalNAc
Method in brief: as §1

[26] = molecular target: Fuc(a1-3)[Gal(b1-4)]GlcNAc(b1-6)GalNAc
Method in brief: as §1

[27] = molecular target: Fuc(a1-3)[Gal(b1-4)]GlcNAc(b1-6)[Gal(b1-3)GlcNAc(b1-3)]Gal(b1-4)Glc
Method in brief: as §1

[28] = molecular target: Fuc(a1-3)[Gal(b1-4)]GlcNAc6S
Method in brief: as §1

[29] = molecular target: Fuc(a1-3)[Gal3S(b1-4)]Glc
Method in brief: as §1

[30] = molecular target: Fuc(a1-3)[Gal3S(b1-4)]GlcNAc
Method in brief: as §1

[31] = molecular target: Fuc(a1-3)[Gal3S(b1-4)]GlcNAc6S
Method in brief: as §1

[32] = molecular target: Fuc(a1-3)[GalNAc(b1-4)]GlcNAc
Method in brief: as §1

[33] = molecular target: Fuc(a1-3)[GalNAc(b1-4)]GlcNAc6S
Method in brief: as §1

Fuc(a1-4)GlcNAc = molecular target: Fuc(a1-4)GlcNAc
Method in brief: as §1

Fuc(b1-3)GlcNAc = molecular target: Fuc(b1-3)GlcNAc
Method in brief: as §1

Gal(a1-2)Gal = molecular target: Gal(a1-2)Gal
Method in brief: as §1

B1: Clec2 (Mus musculus), Q9JL99 (protein)
chain: MQDEDGYITLNIKPRKQALSSAEPASSWWRVMALVLLISSMGLVVGLVALGIMSVTQQKYLLAEKENLSATLQQLAKKFCQELIRQSEIKTKSTFEHKCSPCATKWRYHGDSCYGFFRRNLTWEESKQYCTEQNATLVKTASQSTLDYIAERITSVRWIGLSRQNSKKDWMWEDSSVLRKNGINLSGNTEENMNCAYLHNGKIHPASCKERHYLICERNAGMTRVDQLL
[1]
  glycan array binding signal (z-score): 0.099
[2]
  glycan array binding signal (z-score): -0.229
[3]
  glycan array binding signal (z-score): -0.085
[4]
  glycan array binding signal (z-score): -0.676
[5]
  glycan array binding signal (z-score): -0.415
[6]
  glycan array binding signal (z-score): -0.197
[7]
  glycan array binding signal (z-score): 0.116
[8]
  glycan array binding signal (z-score): -0.909
[9]
  glycan array binding signal (z-score): -0.74
[10]
  glycan array binding signal (z-score): -0.594
[11]
  glycan array binding signal (z-score): -0.335
[12]
  glycan array binding signal (z-score): -0.476
[13]
  glycan array binding signal (z-score): 0.176
[14]
  glycan array binding signal (z-score): 0.27
[15]
  glycan array binding signal (z-score): -0.573
[16]
  glycan array binding signal (z-score): -0.246
Fuc(a1-3)GlcNAc
  glycan array binding signal (z-score): -0.682
[17]
  glycan array binding signal (z-score): 0.892
[18]
  glycan array binding signal (z-score): 0.172
[19]
  glycan array binding signal (z-score): 0.349
[20]
  glycan array binding signal (z-score): -0.308
[21]
  glycan array binding signal (z-score): 0.795
[22]
  glycan array binding signal (z-score): -0.589
[23]
  glycan array binding signal (z-score): -0.149
[24]
  glycan array binding signal (z-score): -0.451
[25]
  glycan array binding signal (z-score): -0.696
[26]
  glycan array binding signal (z-score): -0.127
[27]
  glycan array binding signal (z-score): -0.608
[28]
  glycan array binding signal (z-score): 0.099
[29]
  glycan array binding signal (z-score): 0.087
[30]
  glycan array binding signal (z-score): -0.052
[31]
  glycan array binding signal (z-score): 0.55
[32]
  glycan array binding signal (z-score): 0.081
[33]
  glycan array binding signal (z-score): 0.036
Fuc(a1-4)GlcNAc
  glycan array binding signal (z-score): -0.225
Fuc(b1-3)GlcNAc
  glycan array binding signal (z-score): -0.556
Gal(a1-2)Gal
  glycan array binding signal (z-score): 0.521
